# From PMC4336329 (PLoS ONE, 2015)
# In all, about 310,000 compounds went through this assay and about 14,000 (4.5%) showed an effect of 50% or more. Effects have a minus sign here. Some of the results follow.
# Biological target: human ether-à-go-go-related gene (hERG) potassium channel (human, UniProt Q12809)
# Experiment: primary screen, population patch clamp on CHO cells stably expressing hERG
# 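Note: peak tail current of the secondary pulse compared with the same well before compound.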
# human ether-à-go-go-related gene (hERG) potassium channel, sequence (Q12809 whole entry, looked up): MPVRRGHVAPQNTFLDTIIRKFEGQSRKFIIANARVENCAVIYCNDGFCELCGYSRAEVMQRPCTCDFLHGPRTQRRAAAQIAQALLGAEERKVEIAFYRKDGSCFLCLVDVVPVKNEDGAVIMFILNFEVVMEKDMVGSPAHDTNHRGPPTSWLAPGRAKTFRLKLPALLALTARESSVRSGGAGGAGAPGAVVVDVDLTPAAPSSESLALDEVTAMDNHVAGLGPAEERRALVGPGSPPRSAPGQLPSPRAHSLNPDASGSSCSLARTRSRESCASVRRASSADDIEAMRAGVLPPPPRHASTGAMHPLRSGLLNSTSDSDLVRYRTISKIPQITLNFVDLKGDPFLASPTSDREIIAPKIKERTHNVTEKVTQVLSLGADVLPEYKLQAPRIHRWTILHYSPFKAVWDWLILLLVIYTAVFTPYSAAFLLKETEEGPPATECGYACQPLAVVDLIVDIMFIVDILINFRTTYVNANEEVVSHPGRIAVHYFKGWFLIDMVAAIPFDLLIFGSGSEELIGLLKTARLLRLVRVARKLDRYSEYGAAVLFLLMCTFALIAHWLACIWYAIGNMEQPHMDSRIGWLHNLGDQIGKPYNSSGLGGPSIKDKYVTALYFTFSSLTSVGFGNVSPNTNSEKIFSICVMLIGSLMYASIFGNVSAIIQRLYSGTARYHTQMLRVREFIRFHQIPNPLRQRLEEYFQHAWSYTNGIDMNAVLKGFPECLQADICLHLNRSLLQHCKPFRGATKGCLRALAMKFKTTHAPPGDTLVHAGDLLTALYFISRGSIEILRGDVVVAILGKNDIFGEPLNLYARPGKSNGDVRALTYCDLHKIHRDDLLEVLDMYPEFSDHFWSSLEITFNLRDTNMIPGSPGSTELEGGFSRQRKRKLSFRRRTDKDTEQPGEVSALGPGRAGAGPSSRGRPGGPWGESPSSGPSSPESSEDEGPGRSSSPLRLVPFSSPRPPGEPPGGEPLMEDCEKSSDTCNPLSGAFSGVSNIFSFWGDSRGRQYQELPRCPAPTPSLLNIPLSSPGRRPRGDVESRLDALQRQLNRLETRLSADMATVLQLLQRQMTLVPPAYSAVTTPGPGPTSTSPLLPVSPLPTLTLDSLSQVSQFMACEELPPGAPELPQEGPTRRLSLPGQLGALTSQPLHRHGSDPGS
row,Structure (SMILES),"hERG current change (%, negative = inhibition) at 10uM [%]"
1,O=C(Cc1cccc2ccccc12)NNC(=O)c1ccc(Br)o1,0.907
2,COCC1CCCCN1C(=O)c1ccc(OC2CCN(Cc3ccccn3)CC2)cc1 (centres unmarked),1.34
3,Cc1cc(C)c2nc(N3CCN(C(=O)c4cccs4)CC3)sc2c1,0.575
4,CCn1c(SCC(=O)Nc2ccc(F)cc2F)nc2c(c1=O)SCC2,-23
5,CC(Oc1ccc(Cl)cc1Cl)C(=O)NC1=NN(c2ccccc2)C(=O)C1 (centres unmarked),-7.88
6,CC(=O)c1cnc2cc(-c3ccc(C)cc3)nn2c1C,-4.26
7,Cc1cccn2c(=O)c(/C=C(\C#N)C(=O)NCc3ccccc3)c(N3CCC(C(N)=O)CC3)nc12,-29.1
8,CCC[C@@H](CNC)NC[C@H](Cc1ccccc1)NCCCCc1ccccc1,-6.02
9,Cc1cc(C(=O)Nc2c(C)nn(Cc3c(Cl)cccc3Cl)c2C)no1,-0.0826
10,COC(F)(C(=O)Nc1ccc2c(c1)C(=O)NC2=O)C(F)(F)F (centres unmarked),-1.91
11,CCC(=O)N1CCCc2cc(S(=O)(=O)N3CCN(c4ccccc4F)CC3)ccc21,-23.7
12,O=C(Nc1ccc(-c2cn3ccsc3n2)cc1)c1ccc(F)c(S(=O)(=O)N2CCOCC2)c1,-22.1
13,Cc1cccc(NC(=O)CCSc2ccccc2)c1C,5.59
14,CCc1cccc(CC)c1NC(=O)COC(=O)Cc1ccsc1,21.2
15,COc1cc(/C=C2\SC(=Nc3ccc(N4CCOCC4)cc3)N(C)C2=O)ccc1OC(C)C(=O)O (centres unmarked),16.9
16,CCn1c(SCC(=O)N2CCCC2)nc2c(c1=O)SC(C)C2 (centres unmarked),10.2
17,CCOC(=O)C(CC)n1cnc2c(cnn2-c2ccc(Cl)cc2)c1=O (centres unmarked),-25.1
18,O=C(CN(CCc1ccccc1)C(=O)CNS(=O)(=O)c1ccc(F)cc1)NCC1CCCO1 (centres unmarked),0.652
19,CC1(C)COC(c2cccc(C3=NC(C)(C)CO3)n2)=N1,13

row,Structure (SMILES),"hERG current change (%, negative = inhibition) at 10uM [%]"
1,CS(=O)(=O)N1CCc2cc(-c3csc(NC(=O)Cc4ccccc4)n3)ccc21,4.22
2,Cc1onc(-c2c(F)cccc2Cl)c1-c1nnc(-c2ccc(C(F)(F)F)cc2)o1,-1.11
3,Cc1onc(-c2ccccc2Cl)c1C(=O)NCc1nc(-c2ccc(C(F)(F)F)cc2)no1,13.6
4,CCOC(=O)C(NCCc1ccccc1)(NC(C)=O)C(F)(F)F (centres unmarked),11.3
5,CCOc1ccccc1NC(=O)c1cc(C(=O)c2cc(OC)ccc2O)coc1=N,-20.3
6,COc1ccccc1C1CCN(Cc2cccc(C(=O)N3CCC(O)CC3)c2)CC1,19.3
7,Cc1ccc(C)c(SCC(=O)NNC(=O)c2ccccc2)c1,9.78
8,O=C(CSc1nnc(-c2ccccn2)n1Cc1ccco1)Nc1ccc2c(c1)OCO2,-16.4
9,CC(C(=O)c1ccc(-c2ccccc2)cc1)[n+]1cccc(C(N)=O)c1.[Br-] (centres unmarked),21.8
10,CCC(C)c1ccc(OCc2ccc(C(=O)O)o2)cc1 (centres unmarked),3.32
11,CN(C)c1nc(N)nc(Nc2ccccc2C#N)n1,11.3
12,CCN(CC)C(=O)C1CCCc2c1[nH]c1ccc(Cl)cc21 (centres unmarked),-13.8
13,CC(/C=N/N1CCN(Cc2ccccc2)CC1)=C\c1ccccc1,22.6
14,O=C(CSc1ncc(-c2ccccc2)[nH]1)Nc1ccccc1F,-9.84
15,CC(C)(C)NC(=O)C(c1ccncc1)N(C(=O)Cn1nnc(-c2ccc(F)cc2)n1)c1cccc(F)c1 (centres unmarked),15.4
16,O=C(Nc1ccncc1)c1cc(S(=O)(=O)N2CCCCC2)ccc1Cl,-56.2
17,C=CCOc1cccc(/C=N/NC(=O)C(OC)c2ccccc2)c1 (centres unmarked),5.18
18,CCCCNC(=O)O[C@@H]1C[C@@H]2CCN3C(=O)CCC[C@H]([C@H]1CC)[C@H]23,1.52
19,Cc1cc(C)n(/N=C/c2c[nH]c3ccccc23)c(=O)c1C#N,2.66

row,Structure (SMILES),"hERG current change (%, negative = inhibition) at 10uM [%]"
1,O=C(O)COc1ccc(-c2nc(-c3ccccc3)c(-c3ccccc3)[nH]2)cc1,15.5
2,CCOC(=O)c1cc(-c2ccccc2)nn1CC1CC(c2cccnc2)=NO1 (centres unmarked),3.47
3,CNCC(O)c1cc(OCc2ccccc2)c(OCc2ccccc2)cc1F (centres unmarked),-31.2
4,O=C(CSC(=S)N1CCCCC1)Nc1ncc2c(n1)CCCC2=O,-11.7
5,Fc1ccc(-c2csc(=S)[nH]2)cc1,11.1
6,c1ccc(C2OCCN3CCCCC23)cc1 (centres unmarked),-0.48
7,Cn1c(SCc2cc(=O)[nH]c3ccccc23)nnc1-c1ccco1,19.7
8,COc1cccc(CNS(=O)(=O)c2ccc(N3CCCC3=O)cc2)c1,-5.35
9,O=C(NC1CCCC1)c1cc(-c2ccc(Cl)c(Cl)c2)on1,15.6
10,CCN(CC)c1ccc(/C=N/NC(=O)OC)c(O)c1,-9.74
11,CCCCn1nc2cc(C(=O)NCC3CC3)ccc2c1OCC,-14.9
12,CCCOc1cccc(C(=O)NCCCNC(=O)c2ccccn2)c1,5.91
13,O=C(Nc1cc2c(cc1Br)OCCO2)c1ccco1,33.1
14,CS(=O)(=O)Nc1ccccc1C(=O)NCCSc1ccccc1,7.72
15,CCOC(=O)N1CCC(N(CCCOC)C(=O)Nc2ccc(CC)cc2)CC1,-48.6
16,Cc1c(Cc2ccccc2)sc(/N=C/c2ccc3ccccc3c2)c1C(N)=O,6.83
17,COc1ccc([N+](=O)[O-])cc1N(CC(=O)N1CCOCC1)S(C)(=O)=O,19.2
18,COc1c(Cl)cc(C(=O)Nc2ccccc2-c2ccccc2)cc1Cl,0.345
